# Laboratory results published in ChEMBL document CHEMBL1128428, “Inhibition of matrix metalloproteinases by hydroxamates containing heteroatom-based modifications of the P1' group” (J Med Chem, 1995).
# What was measured:
# [1] = target: Neutrophil collagenase (Homo sapiens, UniProt P22894)
# [2] = target: Stromelysin-1 (Homo sapiens, UniProt P08254)
Ki [1],SMILES,Ki [2]
2 nM,CNC(=O)[C@H](Cc1ccccc1)NC(=O)[C@@H](CC(=O)NO)CC(C)C,–
–,CC(C)(C)[C@H](NC(=O)[C@H](CCCCOc1ccccc1)CC(=O)NO)C(=O)NCCC(=O)O,3 nM
–,CNC(=O)[C@@H](NC(=O)[C@H](CCCCOc1ccc(C(C)(C)C)cc1)CC(=O)NO)C(C)(C)C,16 nM
–,CNC(=O)[C@@H](NC(=O)[C@H](CCCCOc1ccc(Cl)c(Cl)c1)CC(=O)NO)C(C)(C)C,62 nM
–,CNC(=O)[C@@H](NC(=O)[C@H](CCCCOc1ccccc1)CC(=O)NO)C(C)(C)C,6 nM
–,CC(C)(C)[C@H](NC(=O)[C@H](CCCCOc1ccc(Cl)cc1)CC(=O)NO)C(=O)NCCCN1CCOCC1,< 2 nM
–,CNC(=O)[C@@H](NC(=O)[C@H](CCCCOc1ccc(F)cc1)CC(=O)NO)C(C)(C)C,38 nM
–,CCCCCc1ccc(OCCCC[C@H](CC(=O)NO)C(=O)N[C@H](C(=O)NC)C(C)(C)C)cc1,14 nM
–,CC(C)(C)[C@H](NC(=O)[C@H](CCCCOc1ccc(Cl)cc1)CC(=O)NO)C(=O)NCCc1ccccc1,5 nM
–,CC(C)(C)[C@H](NC(=O)[C@H](CCCCOc1ccccc1)CC(=O)NO)C(=O)NCCCC(=O)O,2 nM
–,CNC(=O)[C@@H](NC(=O)[C@H](CCCCOc1cccc(Cl)c1)CC(=O)NO)C(C)(C)C,112 nM
–,CNC(=O)[C@@H](NC(=O)[C@H](CCCCOc1ccc(OC)cc1)CC(=O)NO)C(C)(C)C,41 nM
–,CC(C)(C)[C@H](NC(=O)[C@H](CCCCOc1ccc(Cl)cc1)CC(=O)NO)C(=O)NCCc1ccc(S(N)(=O)=O)cc1,< 2 nM
–,CNC(=O)[C@@H](NC(=O)[C@H](CCCCOc1cccc(C)c1)CC(=O)NO)C(C)(C)C,54 nM
–,CC(C)(C)[C@H](NC(=O)[C@H](CCCCOc1ccc(Cl)cc1)CC(=O)NO)C(=O)NCCc1ccccn1,6 nM
–,CCCc1ccc(OCCCC[C@H](CC(=O)NO)C(=O)N[C@H](C(=O)NC)C(C)(C)C)cc1,11 nM
–,CC(C)(C)[C@H](NC(=O)[C@H](CCCCOc1ccc(Cl)cc1)CC(=O)NO)C(=O)NCCN1CCCC1,5 nM
–,CNC(=O)[C@@H](NC(=O)[C@H](CCCCOc1ccc(C(C)C)cc1)CC(=O)NO)C(C)(C)C,12 nM
–,CNC(=O)[C@@H](NC(=O)[C@H](CCCCOc1cccc(OC)c1)CC(=O)NO)C(C)(C)C,65 nM
